From the RNAGym collection of RNA variant scans (doi:10.7554/elife.90254)
The source gives no read counts; variants with many changes may rest on few reads.

B1: LINE1-full (parent)
chain: UACGUAGGUGGUUUUCCCCUGAUAGUGCUAAGGGGGCCUGGAAGUUUGGACUGGGCAGAGCUCAACACAGCGUGGCAAAGUGGCUGUGGCUAGACUGCCUCUCUGGAUUCCUCGUCACUCAGCAGGGCAUCUCUGAGAGAAAUGCC

Variants of: B1
Experiment: self-cleavage, relative activity (ratio to wild type); higher = more cleavage; in vitro, sequencing; the parent is a self-cleaving ribozyme

| Variant | self-cleavage |
| --- | --- |
| UACGUAGGUGGUUUUCCCCUGAUAGUGCUAAGGGGGCCUGGAAGUUUGGACUGGGCAGUGCUCAACACAGCGAGGCAAAGUGGCUGUGGCUAGACUGCCUCACUGGAUUCCUCGUCACUCAGCAGGGCAUCUCUGAGAGAAAUGCC [A59U U73A U102A] | 0.97 |
| UACGUAGGUGGUUUUCCCCUGAUAGUGCUAAGGGGGCCUGGAAGUUUGGACUGGGCAGUGCUCAACACAGCGCGGCAAAGUGGCUGUGGCUAGACUGCCUCUCUGGAUUCCUAGUCACUCAGCAGGGCAUCUCUGAGAGAAAUGCU [A59U U73C C113A C146U] | 1.23 |
| UACGUAGGUGGUUUUCCCCUGAUAGUGCUAAGGGGGCCUGGAAGUUUGGACUGGGCAGUGCUCAACACAGCGUGGCAAAGUGGCUGCGGCUAGACUGCCUCUCUGGAUUCCUCGUCACUCAGCAGGGCAUCUCUGAGAGGAAUGCC [A59U U87C A140G] | 0.13 |
| UACGUAGGUGGUUUUCCCCUGAUAGUGCUAAGGGGGCCUGGAAGUUUGGACUGGGCAGUGCUCAACACAGCGUGGCAAAGUGGCUGUGGCUAGACCGCCUCUCUGGAUUCCUCGUCACUCAGCAGGGCAUCUCUGAGGGAAAUGCC [A59U U96C A138G] | 0.25 |
| UACGUAGGUGGUUUUCCCCUGAUAGUGCUAAGGGGGCCUGGAAGUUUGGACUGGGCAGUGCUCAACACAGCGUGGCAAAGUGGCUGUGGCUAGACUGCCUCCCUGGAUUCCCCGUCACUCAGCAGGGCAUCUCUGAGAGAAAUGCC [A59U U102C U112C] | 0.35 |
| UACGUAGGUGGUUUUCCCCUGAUAGUGCUAAGGGGGCCUGGAAGUUUGGACUGGGCAGUGCUCAACACAGCGUGGCAAAGUGGCUGUGGCUAGACUGCCUCUCUGGAUUCCCCGUCACUCAGCAGGGCAUCUCUGAGAGAAUUGCC [A59U U112C A142U] | 0.58 |
| UACGUAGGUGGUUUUCCCCUGAUAGUGCUAAGGGGGCCUGGAAGUUUGGACUGGGCAGUGCUCAACACAGCGUGGCAAAGUGGCUGUGGCUAGACUGCCUCUCUGGAUUCCUCGUCACACAGCAGGGCAUCUCUGAGAGAAAUGUC [A59U U119A C145U] | 0.93 |
| UACGUAGGUGGUUUUCCCCUGAUAGUGCUAAGGGGGCCUGGAAGUUUGGACUGGGCAGAACUCAACACAGCGUGGCAGAGUGGCUGUGGCUAGACUGCCUCUCUGGAUUCCUCGUCGCUCAGCAGGGCAUCUCUGAGAGAAAUGCC [G60A A78G A117G] | 0.03 |
| UACGUAGGUGGUUUUCCCCUGAUAGUGCUAAGGGGGCCUGGAAGUUUGGACUGGGCAGAACUCAACACAGCGUGGCAUAGUGGCUGAGGCUAGACUGCCUCUCUGGAUUCCUCGUCACUCAGCAGGGCAUCUCUGAGAGAAAUGCC [G60A A78U U87A] | 0.03 |
| UACGUAGGUGGUUUUCCCCUGAUAGUGCUAAGGGGGCCUGGAAGUUUGGACUGGGCAGAACUCAACACAGCGUGGCAAGGUGGCUGUGGCUAGACUGCCUCUCUGGAUUCCUCGUCGCUCAGUAGGGCUUCUCUGAGAGAAAUGCC [G60A A79G A117G C123U A129U] | 0.05 |
| UACGUAGGUGGUUUUCCCCUGAUAGUGCUAAGGGGGCCUGGAAGUUUGGACUGGGCAGAACUCAACACAGCGUGGCAAAGUGGCUGUGGCUAGACUGCCUCUCUGGAUUCCUCGUCACUCAGUAGGGCAUCUCUGAGAGAGAUGCC [G60A C123U A141G] | 0.03 |
| UACGUAGGUGGUUUUCCCCUGAUAGUGCUAAGGGGGCCUGGAAGUUUGGACUGGGCAGAACUCAACACAGCGUGGCAAAGUGGCUGUGGCUAAACUGACUCUCUGGAUUCCUCGUCACUCAGCAGGGCAUCUCUGAGAGGAAUGCC [G60A G93A C98A A140G] | 0 |
| UACGUAGGUGGUUUUCCCCUGAUAGUGCUAAGGGGGCCUGGAAGUUUGGACUGGGCAGAACUCAACACAGCGUGGCAAAGUGGCUGUGGCUAGACUGCCUCUCUGUAUUCCUCGCCACUCAGCAGGGCAUCUCUGAGAGACAUGCC [G60A G106U U115C A141C] | 0 |
| UACGUAGGUGGUUUUCCCCUGAUAGUGCUAAGGGGGCCUGGAAGUUUGGACUGGGCAGAACCCAACACAGCGUGGCAAAGUGGCUGUGGCUAGACUGCCUCUCUGGACUCCUCGUCACUCAGCAGGGCAUCUCUGAGAGAAAUGCC [G60A U62C U108C] | 0.04 |
| UACGUAGGUGGUUUUCCCCUGAUAGUGCUAAGGGGGCCUGGAAGUUUGGACUGGGCAGAACUCAACACAGCGUGGCAAAGUGGCUGUGGCUAGACUGCCUCUCUGGAUUCCCCGUCACUCAGCAGGGCAUCACUGAGAGAAAUGCC [G60A U112C U132A] | 0.02 |
| UACGUAGGUGGUUUUCCCCUGAUAGUGCUAAGGGGGCCUGGAAGUUUGGACUGGGCAGAACUCAACACAGCGUGGCAAAGUGGCUGUGGCUAGACUGCCUCUCUGGAUUCCUCGCCACUCAGCAGGGCAUCUCUGAGACAAAUGCC [G60A U115C G139C] | 0.02 |
| UACGUAGGUGGUUUUCCCCUGAUAGUGCUAAGGGGGCCUGGAAGUUUGGACUGGGCAGACCUCAGCUCAGCGUGGCAAAGUGGCUGUGGCUAGACUGCCUCUCUGGAUUCCUCGUCACUCAGCAGGGCAUCUCUGAGGGAAAUGCC [G60C A65G A67U A138G] | 0.05 |
| UACGUAGGUGGUUUUCCCCUGAUAGUGCUAAGGGGGCCUGGAAGUUUGGACUGGGCAGACCUCAACACAGAGUGGCAAAGUGGCUGUGGCUAGACUGCCUCUCUGGACUCCUCGUCACUCAGCAGGGCAUCUCAGAGAGAAAUGCC [G60C C71A U108C U134A] | 0.03 |
| UACGUAGGUGGUUUUCCCCUGAUAGUGCUAAGGGGGCCUGGAAGUUUGGACUGGGCAGAUCUCAACACAGCGUGGCAAAGUGGCUGUGGCUAGACUGCCUCUCUGGAUUCCUCGUCUCUCAGCAGGGCAUCUCUGAGUGAAAUGCC [G60U A117U A138U] | 0.04 |
| UACGUAGGUGGUUUUCCCCUGAUAGUGCUAAGGGGGCCUGGAAGUUUGGACUGGGCAGAUCUCAACACAGCGUGGCAAAGUGGCUGUGGCUAGACUGCCUCUCUGAAUUCCUCGUCACUCAGCUGGGCAUCACUGAGAGAGAUGCC [G60U G106A A124U U132A A141G] | 0.04 |

| Variant | self-cleavage |
| --- | --- |
| UACGUAGGUGGUUUUCCCCUGAUAGUGCUAAGGGGGCCUGGAAGUUUGGACUGGGCAGAUCUCAACACAGCGUGGCAAAGUGGCUGUGGCUAGACUGCCUCUCUGAAUUCCUCGUCACUCAACAGGGCAUCUCUGAGAGAAAUGCC [G60U G106A G122A] | 0.03 |
| UACGUAGGUGGUUUUCCCCUGAUAGUGCUAAGGGGGCCUGGAAGUUUGGACUGGGCAGAUCUCAACACAGCGUGGCAAAGUGGCUGUGGCUAGACUGCCUCUCUGGAUUCCUCGUCACUCAGCAGGGCACCUCUGAGAAAAAUGCC [G60U U130C G139A] | 0.05 |
| UACGUAGGUGGUUUUCCCCUGAUAGUGCUAAGGGGGCCUGGAAGUUUGGACUGGGCAGAGAUCAACACAGCGUGGCAAUGUGGCUGUGGUUAGACUGCCUCUCUGGAUUCCUCGUCACUCGGCAGGGCAUCUCUGAGAGAAAUGCC [C61A A79U C90U A121G] | 0.01 |
| UACGUAGGUGGUUUUCCCCUGAUAGUGCUAAGGGGGCCUGGAAGUUUGGACUGGGCAGAGAUCAACACAGCGUAGCAAAGUGGCCGUGGCUAGACUGCCUCUCUGGAUUCCUCGUCACUCAGCAGGGCAUCUCUGAGAGAAAUGCC [C61A G74A U85C] | 0.05 |
| UACGUAGGUGGUUUUCCCCUGAUAGUGCUAAGGGGGCCUGGAAGUUUGGACUGGGCAGAGAUCAACACAGCGUGGCAAAGUGGCUGUGGCUAGACUGCCUCUCUGGACUCCUCGUCACUCAGCAGGGCAUCUCUGAGAGAAACGCC [C61A U108C U143C] | 0.07 |
| UACGUAGGUGGUUUUCCCCUGAUAGUGCUAAGGGGGCCUGGAAGUUUGGACUGGGCAGAGGUCAGCACAGCGUGGCAAAGUGGCUGUGGCUAGACCGCCUCUCUGGAUCCCUCGUCACUCAGCAGGGCAUCUCUGAGAGAAGUGCC [C61G A65G U96C U109C A142G] | 0 |
| UACGUAGGUGGUUUUCCCCUGAUAGUGCUAAGGGGGCCUGGAAGUUUGGACUGGGCAGAGGUCAACACAGCGUGGCAACGUGGCUGUGGUUAGACUGCCUCUCUGGAUUCCUCGUCACUCAGCAGGGCAUCUCUGAGAGAAAUGCC [C61G A79C C90U] | 0.05 |
| UACGUAGGUGGUUUUCCCCUGAUAGUGCUAAGGGGGCCUGGAAGUUUGGACUGGGCAGAGGUCAACACAGCGUGGCAAAGUGGCUGUGGCUAGACUGCCCCUCUGGAUUCCACGUCACUCAGCAGGGCAUCUCUGAGAGAAAUGCC [C61G U100C U112A] | 0.09 |
| UACGUAGGUGGUUUUCCCCUGAUAGUGCUAAGGGGGCCUGGAAGUUUGGACUGGGCAGAGUUCAGCACAGCGUGGCAAAGUGGCUGGGGCUAGGCUGCCUCUCUGGAUUCCUCGUCACUCAGCAGGGCAUCUCUGAGAGAAAUGCC [C61U A65G U87G A94G] | 0.05 |
| UACGUAGGUGGUUUUCCCCUGAUAGUGCUAAGGGGGCCUGGAAGUUUGGACUGGGCAGAGUUCAACACGGCGUGGCAAAGUGGCUGUGGCUAGACUGCCUCUCUGGAUUCCUCGUCACUCAGCAGGGCAUCUCAGAGAGAAAUGCC [C61U A69G U134A] | 0.06 |
| UACGUAGGUGGUUUUCCCCUGAUAGUGCUAAGGGGGCCUGGAAGUUUGGACUGGGCAGAGUUCAACACAGCGUGGCAAAGUGGCUGUGGCUAGUCUGCCUCUCUGGAUCCCUCGUCACUCAGCAGGGCAUCCCUGAGAGAAAUGCC [C61U A94U U109C U132C] | 0.02 |
| UACGUAGGUGGUUUUCCCCUGAUAGUGCUAAGGGGGCCUGGAAGUUUGGACUGGGCAGAGUUCAACACAGCGUGGCAAAGUGGCUGUGGCUAGACUGCCUCUCUGGAUUCCUCGUCACUCAGCGGGGCAUCUCUGAGGGGAAUGCC [C61U A124G A138G A140G] | 0 |
| UACGUAGGUGGUUUUCCCCUGAUAGUGCUAAGGGGGCCUGGAAGUUUGGACUGGGCAGAGUUCAACACAGCGUGGCAAAGUGGCAGUGGCUAGACUGCCUCUCUGGAUCCCUCGUCACUCAGCAGGGCAUCUCUGAGAGAAGUGCC [C61U U85A U109C A142G] | 0.04 |
| UACGUAGGUGGUUUUCCCCUGAUAGUGCUAAGGGGGCCUGGAAGUUUGGACUGGGCAGAGUUCAACACAGCGUGGCAAAGUGGCUGUGGCUAGACCGCCUCUCUGAAUUCCUCGUCACUCAGCAGGGCAUCUCUGAGAGAAACGCC [C61U U96C G106A U143C] | 0.04 |
| UACGUAGGUGGUUUUCCCCUGAUAGUGCUAAGGGGGCCUGGAAGUUUGGACUGGGCAGAGCACAGCACUGCGUGGCAAAGUGGCUGUGGCUAGACCGCCUCUCUGGAUUCCUCGUCACCCAGCAGGGCAUCUCUGAGUGAAAUGCC [U62A A65G A69U U96C U119C A138U] | 0 |
| UACGUAGGUGGUUUUCCCCUGAUAGUGCUAAGGGGGCCUGGAAGUUUGGACUGGGCAGAGCACAGCACAGCGUGGCAAAGUGGCUGUGGCUAGACUGCCUCUCUGGAUUCCUCGUCACUCAGCAGGGCAUCUCUGUGAGAAAUGCC [U62A A65G A136U] | 0.08 |
| UACGUAGGUGGUUUUCCCCUGAUAGUGCUAAGGGGGCCUGGAAGUUUGGACUGGGCAGAGCACAGCACAGCGUGGCAAAGUGGCUGUGGCUAGACUGCCUCUCUGGAUUCCUCGUCACUCAGCAGGGCAUCUCUGAGAGAGAUGCC [U62A A65G A141G] | 0.04 |
| UACGUAGGUGGUUUUCCCCUGAUAGUGCUAAGGGGGCCUGGAAGUUUGGACUGGGCAGAGCACAACGCAGCGUGGCAAAGUGGCUGUGGCUAGGCUGCCUCUCUGGAUUCCUCGUCACUCAGCAGGGCCUCUCUGAGAGAAAUGCC [U62A A67G A94G A129C] | 0 |
| UACGUAGGUGGUUUUCCCCUGAUAGUGCUAAGGGGGCCUGGAAGUUUGGACUGGGCAGAGCACAACACGGCGUGGCAAAGUGGCCGUGGCUAGACUGCCUCUCUGGAUUCCUCGUCACUCAGCAGGGCAUCUCUGAGAGAAAUGCC [U62A A69G U85C] | 0.34 |
